Experimental data from US20240076343A1 (CEPHALON, published 2024).

T1: recombinant human CD122 extracellular domain, C-terminal poly-histidine tagged (human, UniProt P14784 27-240)
T1 construct: also called CD122/IL-2Rβ; IL-2Rβ
T1 sequence: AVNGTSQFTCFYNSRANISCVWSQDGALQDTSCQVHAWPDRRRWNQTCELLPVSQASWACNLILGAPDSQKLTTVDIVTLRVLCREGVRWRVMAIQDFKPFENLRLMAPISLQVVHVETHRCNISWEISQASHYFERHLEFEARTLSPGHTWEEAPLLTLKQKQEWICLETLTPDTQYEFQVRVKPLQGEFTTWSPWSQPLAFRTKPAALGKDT

B1: 1H3-hIgG1-L6-hIL-2 (D84A) (other)
heavy: EVQLVESGGGLVQPGRSLKLSCAVSGFTFSDYAMAWVRQAPKKGLEWVATISYDGSRTYYRDSVKGRFTISRDNAKITLYLQMDSLRSEDTATYYCARHGSGYFDYWGQGVMVTVSS[not shown - about 450 residues with a human IgG1 Fc and changes]
light: DTVLTQSPALAVSPGERVTISCRASESVRTGVHWYQQKPGQQPKLLIYGASNLESGVPARFSGSGSGTDFTLTIDPVEADDTATYFCQQSWNDPFTFGSGTKLEIKRTVAAPSVFIFPPSDEQLKSGTASVVCLLNNFYPREAKVQWKVDNALQSGNSQESVTEQDSKDSTYSLSSTLTLSKADYEKHKVYACEVTHQGLSSPVTKSFNRGEC
notes: Built as m13
B2: 1H3-hIgG1-L6-hIL-2 (D84R) (other)
heavy: EVQLVESGGGLVQPGRSLKLSCAVSGFTFSDYAMAWVRQAPKKGLEWVATISYDGSRTYYRDSVKGRFTISRDNAKITLYLQMDSLRSEDTATYYCARHGSGYFDYWGQGVMVTVSS[not shown - about 450 residues with a human IgG1 Fc and changes]
light: DTVLTQSPALAVSPGERVTISCRASESVRTGVHWYQQKPGQQPKLLIYGASNLESGVPARFSGSGSGTDFTLTIDPVEADDTATYFCQQSWNDPFTFGSGTKLEIKRTVAAPSVFIFPPSDEQLKSGTASVVCLLNNFYPREAKVQWKVDNALQSGNSQESVTEQDSKDSTYSLSSTLTLSKADYEKHKVYACEVTHQGLSSPVTKSFNRGEC
notes: Built as m13
B3: 1H3-hIgG1-L6-hIL-2 (I92A) (other)
heavy: EVQLVESGGGLVQPGRSLKLSCAVSGFTFSDYAMAWVRQAPKKGLEWVATISYDGSRTYYRDSVKGRFTISRDNAKITLYLQMDSLRSEDTATYYCARHGSGYFDYWGQGVMVTVSS[not shown - about 450 residues with a human IgG1 Fc and changes]
light: DTVLTQSPALAVSPGERVTISCRASESVRTGVHWYQQKPGQQPKLLIYGASNLESGVPARFSGSGSGTDFTLTIDPVEADDTATYFCQQSWNDPFTFGSGTKLEIKRTVAAPSVFIFPPSDEQLKSGTASVVCLLNNFYPREAKVQWKVDNALQSGNSQESVTEQDSKDSTYSLSSTLTLSKADYEKHKVYACEVTHQGLSSPVTKSFNRGEC
notes: Built as m13
B4: 1H3-hIgG1-L6-hIL-2 (I92F) (other)
heavy: EVQLVESGGGLVQPGRSLKLSCAVSGFTFSDYAMAWVRQAPKKGLEWVATISYDGSRTYYRDSVKGRFTISRDNAKITLYLQMDSLRSEDTATYYCARHGSGYFDYWGQGVMVTVSS[not shown - about 450 residues with a human IgG1 Fc and changes]
light: DTVLTQSPALAVSPGERVTISCRASESVRTGVHWYQQKPGQQPKLLIYGASNLESGVPARFSGSGSGTDFTLTIDPVEADDTATYFCQQSWNDPFTFGSGTKLEIKRTVAAPSVFIFPPSDEQLKSGTASVVCLLNNFYPREAKVQWKVDNALQSGNSQESVTEQDSKDSTYSLSSTLTLSKADYEKHKVYACEVTHQGLSSPVTKSFNRGEC
notes: Built as m13
B5: 1H3-hIgG1-L6-hIL-2 (I92S) (other)
heavy: EVQLVESGGGLVQPGRSLKLSCAVSGFTFSDYAMAWVRQAPKKGLEWVATISYDGSRTYYRDSVKGRFTISRDNAKITLYLQMDSLRSEDTATYYCARHGSGYFDYWGQGVMVTVSS[not shown - about 450 residues with a human IgG1 Fc and changes]
light: DTVLTQSPALAVSPGERVTISCRASESVRTGVHWYQQKPGQQPKLLIYGASNLESGVPARFSGSGSGTDFTLTIDPVEADDTATYFCQQSWNDPFTFGSGTKLEIKRTVAAPSVFIFPPSDEQLKSGTASVVCLLNNFYPREAKVQWKVDNALQSGNSQESVTEQDSKDSTYSLSSTLTLSKADYEKHKVYACEVTHQGLSSPVTKSFNRGEC
notes: Built as m13
B6: 1H3-hIgG1-L6-hIL-2 (I92Y) (other)
heavy: EVQLVESGGGLVQPGRSLKLSCAVSGFTFSDYAMAWVRQAPKKGLEWVATISYDGSRTYYRDSVKGRFTISRDNAKITLYLQMDSLRSEDTATYYCARHGSGYFDYWGQGVMVTVSS[not shown - about 450 residues with a human IgG1 Fc and changes]
light: DTVLTQSPALAVSPGERVTISCRASESVRTGVHWYQQKPGQQPKLLIYGASNLESGVPARFSGSGSGTDFTLTIDPVEADDTATYFCQQSWNDPFTFGSGTKLEIKRTVAAPSVFIFPPSDEQLKSGTASVVCLLNNFYPREAKVQWKVDNALQSGNSQESVTEQDSKDSTYSLSSTLTLSKADYEKHKVYACEVTHQGLSSPVTKSFNRGEC
notes: Built as m13
B7: 1H3-hIgG1-L6-hIL-2 (L72D) (other)
heavy: EVQLVESGGGLVQPGRSLKLSCAVSGFTFSDYAMAWVRQAPKKGLEWVATISYDGSRTYYRDSVKGRFTISRDNAKITLYLQMDSLRSEDTATYYCARHGSGYFDYWGQGVMVTVSS[not shown - about 450 residues with a human IgG1 Fc and changes]
light: DTVLTQSPALAVSPGERVTISCRASESVRTGVHWYQQKPGQQPKLLIYGASNLESGVPARFSGSGSGTDFTLTIDPVEADDTATYFCQQSWNDPFTFGSGTKLEIKRTVAAPSVFIFPPSDEQLKSGTASVVCLLNNFYPREAKVQWKVDNALQSGNSQESVTEQDSKDSTYSLSSTLTLSKADYEKHKVYACEVTHQGLSSPVTKSFNRGEC
notes: Built as m13
B8: 1H3-hIgG1-L6-hIL-2 (L72H) (other)
heavy: EVQLVESGGGLVQPGRSLKLSCAVSGFTFSDYAMAWVRQAPKKGLEWVATISYDGSRTYYRDSVKGRFTISRDNAKITLYLQMDSLRSEDTATYYCARHGSGYFDYWGQGVMVTVSS[not shown - about 450 residues with a human IgG1 Fc and changes]
light: DTVLTQSPALAVSPGERVTISCRASESVRTGVHWYQQKPGQQPKLLIYGASNLESGVPARFSGSGSGTDFTLTIDPVEADDTATYFCQQSWNDPFTFGSGTKLEIKRTVAAPSVFIFPPSDEQLKSGTASVVCLLNNFYPREAKVQWKVDNALQSGNSQESVTEQDSKDSTYSLSSTLTLSKADYEKHKVYACEVTHQGLSSPVTKSFNRGEC
notes: Built as m13
B9: 1H3-hIgG1-L6-hIL-2 (L72R) (other)
heavy: EVQLVESGGGLVQPGRSLKLSCAVSGFTFSDYAMAWVRQAPKKGLEWVATISYDGSRTYYRDSVKGRFTISRDNAKITLYLQMDSLRSEDTATYYCARHGSGYFDYWGQGVMVTVSS[not shown - about 450 residues with a human IgG1 Fc and changes]
light: DTVLTQSPALAVSPGERVTISCRASESVRTGVHWYQQKPGQQPKLLIYGASNLESGVPARFSGSGSGTDFTLTIDPVEADDTATYFCQQSWNDPFTFGSGTKLEIKRTVAAPSVFIFPPSDEQLKSGTASVVCLLNNFYPREAKVQWKVDNALQSGNSQESVTEQDSKDSTYSLSSTLTLSKADYEKHKVYACEVTHQGLSSPVTKSFNRGEC
notes: Built as m13
B10: 1H3-hIgG1-L6-hIL-2 (N88D) (other)
heavy: EVQLVESGGGLVQPGRSLKLSCAVSGFTFSDYAMAWVRQAPKKGLEWVATISYDGSRTYYRDSVKGRFTISRDNAKITLYLQMDSLRSEDTATYYCARHGSGYFDYWGQGVMVTVSS[not shown - about 450 residues with a human IgG1 Fc and changes]
light: DTVLTQSPALAVSPGERVTISCRASESVRTGVHWYQQKPGQQPKLLIYGASNLESGVPARFSGSGSGTDFTLTIDPVEADDTATYFCQQSWNDPFTFGSGTKLEIKRTVAAPSVFIFPPSDEQLKSGTASVVCLLNNFYPREAKVQWKVDNALQSGNSQESVTEQDSKDSTYSLSSTLTLSKADYEKHKVYACEVTHQGLSSPVTKSFNRGEC
notes: Built as m13
B11: 1H3-hIgG1-L6-hIL-2 (N88E) (other)
heavy: EVQLVESGGGLVQPGRSLKLSCAVSGFTFSDYAMAWVRQAPKKGLEWVATISYDGSRTYYRDSVKGRFTISRDNAKITLYLQMDSLRSEDTATYYCARHGSGYFDYWGQGVMVTVSS[not shown - about 450 residues with a human IgG1 Fc and changes]
light: DTVLTQSPALAVSPGERVTISCRASESVRTGVHWYQQKPGQQPKLLIYGASNLESGVPARFSGSGSGTDFTLTIDPVEADDTATYFCQQSWNDPFTFGSGTKLEIKRTVAAPSVFIFPPSDEQLKSGTASVVCLLNNFYPREAKVQWKVDNALQSGNSQESVTEQDSKDSTYSLSSTLTLSKADYEKHKVYACEVTHQGLSSPVTKSFNRGEC
notes: Built as m13
B12: 1H3-hIgG1-L6-hIL-2 (N88F) (other)
heavy: EVQLVESGGGLVQPGRSLKLSCAVSGFTFSDYAMAWVRQAPKKGLEWVATISYDGSRTYYRDSVKGRFTISRDNAKITLYLQMDSLRSEDTATYYCARHGSGYFDYWGQGVMVTVSS[not shown - about 450 residues with a human IgG1 Fc and changes]
light: DTVLTQSPALAVSPGERVTISCRASESVRTGVHWYQQKPGQQPKLLIYGASNLESGVPARFSGSGSGTDFTLTIDPVEADDTATYFCQQSWNDPFTFGSGTKLEIKRTVAAPSVFIFPPSDEQLKSGTASVVCLLNNFYPREAKVQWKVDNALQSGNSQESVTEQDSKDSTYSLSSTLTLSKADYEKHKVYACEVTHQGLSSPVTKSFNRGEC
notes: Built as m13
B13: 1H3-hIgG1-L6-hIL-2 (N88I) (other)
heavy: EVQLVESGGGLVQPGRSLKLSCAVSGFTFSDYAMAWVRQAPKKGLEWVATISYDGSRTYYRDSVKGRFTISRDNAKITLYLQMDSLRSEDTATYYCARHGSGYFDYWGQGVMVTVSS[not shown - about 450 residues with a human IgG1 Fc and changes]
light: DTVLTQSPALAVSPGERVTISCRASESVRTGVHWYQQKPGQQPKLLIYGASNLESGVPARFSGSGSGTDFTLTIDPVEADDTATYFCQQSWNDPFTFGSGTKLEIKRTVAAPSVFIFPPSDEQLKSGTASVVCLLNNFYPREAKVQWKVDNALQSGNSQESVTEQDSKDSTYSLSSTLTLSKADYEKHKVYACEVTHQGLSSPVTKSFNRGEC
notes: Built as m13

biological target: T1, recombinant human CD122 extracellular …; test: BLI (Octet)

**Q.** Does B1 bind?
**A.** no binding (tested: 300 nM)

**Q.** B2 was tested. Which Kd did it give?
**A.** 18.8 nM

**Q.** And the koff?
**A.** 0.00888 s⁻¹

**Q.** What about the kon of the same binder?
**A.** 473000 M⁻¹ s⁻¹

**Q.** Which Kd does the source give for B3 here?
**A.** 3.38 nM

**Q.** And the koff?
**A.** 0.00658 s⁻¹

**Q.** And the kon?
**A.** 1.95e+06 M⁻¹ s⁻¹

**Q.** How did the Kd turn out when B4 was run?
**A.** 5.45 nM

**Q.** What about the koff of the same binder?
**A.** 0.000559 s⁻¹

**Q.** And the kon?
**A.** 103000 M⁻¹ s⁻¹

**Q.** Does B5 bind?
**A.** no binding (tested: 300 nM)

**Q.** Which results are given for B6?
**A.** Kd: 12.3 nM; koff: 0.00557 s⁻¹; kon: 453000 M⁻¹ s⁻¹

**Q.** For B7, which Kd is on record?
**A.** 9.52 nM

**Q.** And the koff?
**A.** 0.0015 s⁻¹

**Q.** What about the kon of the same binder?
**A.** 157000 M⁻¹ s⁻¹

**Q.** Which results are given for B8?
**A.** Kd: 9.03 nM; koff: 0.00149 s⁻¹; kon: 165000 M⁻¹ s⁻¹

**Q.** Which results are given for B9?
**A.** Kd: 19.6 nM; koff: 0.000601 s⁻¹; kon: 30700 M⁻¹ s⁻¹

**Q.** Does B10 bind?
**A.** no binding (tested: 300 nM)

**Q.** Does B11 bind?
**A.** no binding (tested: 300 nM)

**Q.** Does B12 bind?
**A.** no binding (tested: 300 nM)

**Q.** Does B13 bind?
**A.** no binding (tested: 300 nM)
